{"source": "patent US20200323950A1", "about": "“ANTIBACTERIAL PEPTIDES AND COMBINATIONS FOR CO-THERAPY” (priority 2017, published 2020)", "key": {"[1]": {"experiment": "Diffusion NMR spectroscopy (PFG-NMR)", "format": "physicochemical", "details": "for D^p, diffusion coefficient of PrAMPs / Rh, effective hydrodynamic radius: deuterated water, 298 K; for Rh, effective hydrodynamic radius: dioxane reference Rh 2.12 Å"}, "K. pneumoniae K97/09": {"test_system": "K. pneumoniae K97/09", "experiment": "Bacteremia Synergy Assay 2 (mouse systemic infection)", "format": "in vivo", "experimental": "In vivo Studies. Animals. Assays 1-2. NMRI (Naval Medical Research Institute) BR or CD-1 mice (Toxi-Coop Zrt, Budapest, Hungary) were housed in plastic type 2 cages, 3-5 mice per cage, on softwood granules as bedding. The room was kept between 21° C. and 25° C. with 12 h light:12 h dark cycles. The animals had free access to tap water and pelleted rodent food. Upon completion of the experiments, surviving mice were euthanized by diethyl ether inhalation. Animals were maintained and handled in accordance with the recommendations of the Guidelines for the Care and Use of Laboratory Animals, and the protocols were approved by the Animal Care Committee of Semmelweis University. The planned 15 treatment groups of mice were divided roughly equally into two assays with 8 and 7 treatment groups and untreated controls in each assay for safe and humane handling of large numbers of mice.\nInfection models. NMRI mice weighing approximately 20 g (4 weeks old) were infected by intraperitoneal (ip) injection of 4×10^8 CFU/g K. pneumoniae K97/09. Mice were randomly allocated to 8 and […] groups (5 mice per group).\nBacteremia SYNERGY ASSAY 2.\nGroup 1: PBS sc 1 h after infection. Group 2: Colistin 1 mg/kg sc at 2 and 13 h after infection. Group 3: A3-APO 1 mg/kg im 1 and 12 h after infection. Group 4: A3-APO 1 mg/kg im 1 and 12 h after infection, colistin 1 mg/kg sc at 2 and 13 h after infection. Group 5: Colistin 10 mg/kg sc 4 h after infection, A3-APO 1 mg/kg im 6 h after infection. Group 6: A3-APO 0.5 mg/kg im 1 and 12 h after infection. Group 7: A3-APO 0.5 mg/kg ip 1 and 12 h after infection. Group 8: A3-APO 0.5 mg/kg im 1 and 12 h after infection, colistin 1 mg/kg sc at 2 and 13 h after infection.\n[…] Blood bacterial load reduction and survival in the various groups were compared with Chisquare and unpaired Student's t-testing, respectively (Microsoft Excel, Microsoft, 2007, Redmond, Wash., USA, and SlideWrite, Encinitas, Calif., USA)."}, "[2]": {"details": "cited from earlier work"}, "P. aeruginosa ATCC 47085": {"test_system": "P. aeruginosa ATCC 47085", "experiment": "Antibacterial assay (MIC)", "format": "cell-based", "details": "P. aeruginosa ATCC 47085, MHB, 37° C.", "experimental": "Antibacterial assay. Antibacterial assays are undertaken to determine the minimal inhibitory concentrations (MIC) as described previouslyl^6.\nAntibacterial activity. Each C-terminal modified PrAMP DTM-linked tetramer is assayed against nosocomial Gram-negative bacteria, including E. coli ATCC 29222, K. pneumoniae ATCC 13883, A. baumannii ATCC 19606 and P. aeruginosa ATCC 47085."}, "[3]": {"test_system": "multidrug-resistant Klebsiella pneumoniae K97/09", "details": "K. pneumoniae K97/09, compound alone"}, "[4]": {"test_system": "multidrug-resistant Acinetobacter baumannii BAA-1605", "details": "A. baumannii BAA-1605, compound alone"}}, "note": "For part of these data: At least one structure is not confirmed: it was looked up by name or label, or the drawing left a doubt. Some of these results come from one statement about several compounds together. *1 amine or outer side, *2 acyl side, *3 side chain or, on linkers, in order; H or OH if unused. Where a SMILES comes first, the peptide text is derived from it. Bridges are numbered along the chain shown (N, C = ends). Roman numbers before positions name the chains, in order. Where no end group is shown, it is not given here. [ ]: non-standard residue; d: D form. The star is where a group is joined. BMH = O=C1CC([*:1])C(=O)N1CCCCCCN1C(=O)CC([*:2])C1=O; Maleimide(3,4-diyl) = O=C1NC(=O)C([*:2])=C1[*:1]; aThr = C[C@H](O)[C@H](N)C(=O)O; Ac6c = NC1(C(=O)O)CCCCC1; X1 = C(=C\\C[*:2])/C[*:1]; Dab = NCC[C@H](N)C(=O)O; Nva = CCC[C@H](N)C(=O)O; NHNH2 = NN*", "data": [{"compound": "I: [Ac6c]RPDKPRPYLPRPRPPRPVR[Dab]C-NHNH2 / II: [Ac6c]RPDKPRPYLPRPRPPRPVR[Dab]C-NHNH2 / III: [Ac6c]RPDKPRPYLPRPRPPRPVR / IV: [Ac6c]RPDKPRPYLPRPRPPRPVR (amide I:21-III:C, II:21-IV:C; linker I:22-II:22 via BMH) [tetramer-bismal-NHNH2]", "values": [{"measurement": "D^p, diffusion coefficient of PrAMPs", "setting": "[1]", "value": "0.688 ± 0.004 ×10^−10 m^2 s^−1"}, {"measurement": "Rh, effective hydrodynamic radius", "setting": "[1]", "value": "27.14 ± 0.20", "unit": "Å"}, {"measurement": "increase of hydrodynamic radius", "setting": "[1]; relative to dimer-NHNH2", "value": "~35", "unit": "%"}]}, {"compound": "I: H-[Ac6c]RPDKPRPYLPRPRPPRPVR[Dab]-NH2 / II: H-[Ac6c]RPDKPRPYLPRPRPPRPVR (amide I:21-II:C) [A3-APO, (H-Chex-Arg-Pro-Asp-Lys-Pro-Arg-Pro-Tyr-Leu-Pro-Arg-Pro-Arg-Pro-Pro-Arg-Pro-Val-Arg)2-Dab]", "values": [{"measurement": "efficacy of ip versus im administration", "setting": "K. pneumoniae K97/09; 0.5 mg/kg ip (Group 7) versus same dose im, data not shown", "value": "less efficacious"}, {"measurement": "blood bacterial count compared to untreated animals", "setting": "K. pneumoniae K97/09; monotherapy, 0.5 mg/kg or 1.0 mg/kg im", "value": "improvement in blood bacterial count reduction"}, {"measurement": "survival advantage", "setting": "K. pneumoniae K97/09; monotherapy, 0.5 mg/kg or 1.0 mg/kg im (Groups 6 and 3)", "value": "20-40%"}, {"measurement": "activity as monotherapy", "setting": "[2]; Szabo et al., 2010", "value": "dose-dependent survival benefit"}, {"measurement": "single agent therapeutic dose", "setting": "[2]; im, murine bacteremia infection model (Ostorhazi et al., 2011a)", "value": "about 5 mg/kg"}]}, {"compound": "I: H-[Ac6c]RPDKPRPYLPRPRPPRPVR[Dab]-NHNH2 / II: H-[Ac6c]RPDKPRPYLPRPRPPRPVR (amide I:21-II:C) [dimer-NHNH2]", "values": [{"measurement": "D^p, diffusion coefficient of PrAMPs", "setting": "[1]", "value": "0.956 ± 0.004 ×10^−10 m^2 s^−1"}, {"measurement": "Rh, effective hydrodynamic radius", "setting": "[1]", "value": "20.07 ± 0.21", "unit": "Å"}, {"measurement": "reduction in translational diffusion coefficient", "setting": "[1]; reference not given", "value": 34.6, "unit": "%"}]}, {"compound": "I: [Ac6c]RPDKPRPYLPRPRPPRPVR[Dab]C-NHNH2 / II: [Ac6c]RPDKPRPYLPRPRPPRPVR[Dab]C-NHNH2 / III: [Ac6c]RPDKPRPYLPRPRPPRPVR / IV: [Ac6c]RPDKPRPYLPRPRPPRPVR (amide I:21-III:C, II:21-IV:C; linker I:22-II:22 via X1) [tetramer-butene-NHNH2]", "values": [{"measurement": "Antibacterial activity, MIC", "setting": "P. aeruginosa ATCC 47085", "value": 0.77, "unit": "µM"}, {"measurement": "D^p, diffusion coefficient of PrAMPs", "setting": "[1]", "value": "0.694 ± 0.002 ×10^−10 m^2 s^−1"}, {"measurement": "Rh, effective hydrodynamic radius", "setting": "[1]", "value": "26.92 ± 0.35", "unit": "Å"}]}, {"compound": "I: H-[Ac6c]RPDKPRPYLPRPRPPRPVR[Dab]C-NHNH2 / II: H-[Ac6c]RPDKPRPYLPRPRPPRPVR[Dab]C-NHNH2 / III: H-[Ac6c]RPDKPRPYLPRPRPPRPVR / IV: H-[Ac6c]RPDKPRPYLPRPRPPRPVR (amide I:21-III:C, II:21-IV:C; linker I:22-II:22 via Maleimide(3,4-diyl)) [tetramer-DTM-NHNH2]", "values": [{"measurement": "D^p, diffusion coefficient of PrAMPs", "setting": "[1]", "value": "0.767 ± 0.004 ×10^−10 m^2 s^−1"}, {"measurement": "Rh, effective hydrodynamic radius", "setting": "[1]", "value": "25.96 ± 0.51", "unit": "Å"}]}, {"compound": "CCC[C@H](NC(=O)[C@H](CCC(=O)O)NC(=O)[C@@H](N)[C@H](C)O)C(=O)N[C@H](C(=O)N[C@@H](C)C(=O)N[C@@H](CC(C)C)C(=O)N[C@@H](CO)C(=O)N[C@@H](CCCNC(=N)N)C(=O)NC1(C(N)=O)CCCCC1)C(C)C", "note": "[Allo-aca] (H-[aThr]E[Nva]VALSR[Ac6c]-NH2; N-terminus and C-terminus assumed)", "values": [{"measurement": "MIC", "setting": "[3]", "value": "> 256", "unit": "µg/mL"}, {"measurement": "MIC", "setting": "[4]", "value": "> 256", "unit": "µg/mL"}]}]}
